Assay results reported in article PMC4336329 (PLoS ONE, 2015).
In all, about 310,000 compounds went through this assay and about 14,000 (4.5%) showed an effect of 50% or more. Effects have a minus sign here. Some of the results follow.

Biological target: human ether-à-go-go-related gene (hERG) potassium channel (human, UniProt Q12809)
Test: primary screen, population patch clamp on CHO cells stably expressing hERG
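Note: peak tail current of the secondary pulse compared with the same well before compound.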

Chain of human ether-à-go-go-related gene (hERG) potassium channel (Q12809 whole entry, looked up): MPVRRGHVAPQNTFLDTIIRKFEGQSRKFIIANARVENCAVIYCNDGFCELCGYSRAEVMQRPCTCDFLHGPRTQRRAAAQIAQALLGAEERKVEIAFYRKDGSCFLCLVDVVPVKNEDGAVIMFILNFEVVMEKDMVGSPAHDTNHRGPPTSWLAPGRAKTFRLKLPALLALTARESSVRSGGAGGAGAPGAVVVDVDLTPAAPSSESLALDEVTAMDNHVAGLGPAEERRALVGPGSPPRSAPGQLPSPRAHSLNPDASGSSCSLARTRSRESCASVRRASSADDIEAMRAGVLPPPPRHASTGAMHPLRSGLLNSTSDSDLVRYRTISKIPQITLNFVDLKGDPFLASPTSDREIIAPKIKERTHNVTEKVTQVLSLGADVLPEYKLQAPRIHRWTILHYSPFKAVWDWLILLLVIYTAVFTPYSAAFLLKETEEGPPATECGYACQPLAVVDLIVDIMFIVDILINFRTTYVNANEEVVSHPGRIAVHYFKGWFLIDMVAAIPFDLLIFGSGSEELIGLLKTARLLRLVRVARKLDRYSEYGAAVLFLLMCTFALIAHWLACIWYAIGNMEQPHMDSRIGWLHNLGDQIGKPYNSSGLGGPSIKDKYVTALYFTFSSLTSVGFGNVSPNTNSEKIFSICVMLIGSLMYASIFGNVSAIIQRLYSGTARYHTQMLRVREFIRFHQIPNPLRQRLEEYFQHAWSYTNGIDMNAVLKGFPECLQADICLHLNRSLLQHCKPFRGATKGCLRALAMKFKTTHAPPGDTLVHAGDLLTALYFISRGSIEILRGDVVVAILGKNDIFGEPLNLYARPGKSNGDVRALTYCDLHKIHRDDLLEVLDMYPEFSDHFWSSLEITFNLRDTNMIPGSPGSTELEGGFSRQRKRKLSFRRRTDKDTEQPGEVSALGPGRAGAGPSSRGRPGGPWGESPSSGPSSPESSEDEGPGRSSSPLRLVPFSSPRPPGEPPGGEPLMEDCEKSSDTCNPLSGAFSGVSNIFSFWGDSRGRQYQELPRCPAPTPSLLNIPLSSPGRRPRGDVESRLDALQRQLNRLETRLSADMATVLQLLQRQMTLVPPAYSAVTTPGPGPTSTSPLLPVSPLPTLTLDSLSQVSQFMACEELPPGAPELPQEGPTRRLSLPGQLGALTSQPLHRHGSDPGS

SMILES	hERG current change (%, negative = inhibition) at 10uM
Cc1ccc(OCc2nnc(SCC(=O)Nc3ccc(N4CCOCC4)cc3)o2)cc1	12.6%
CCOC(=O)/C=c1\s/c(=C(\C#N)C(N)=O)n(-c2ccccc2)c1=O	2.68%
Cc1cc(C)c(C(=O)Cn2nc(C)c([N+](=O)[O-])c2C)cc1C	7.58%
CC(=O)N1CCCc2cc(S(=O)(=O)N3CCCC(C(=O)NCc4ccc(Cl)cc4)C3)ccc21 (stereo not drawn)	-10.4%
COc1ccc(S(=O)(=O)N2CCN(c3cccc(C)c3C)CC2)cc1	-0.301%
CCC(=O)Nn1c(C)nnc1C	2.96%
COc1ccccc1C(=O)NNC(=O)c1ccc(Br)cc1	19.6%
CCNC(=O)CCS(=O)(=O)c1ccc2ccccc2c1	13.3%
CS(=O)(=O)c1cccc(NC(=O)C2CC2)c1	2.74%
O=C(C1CCN(C2CC(=O)N(c3cccc(Cl)c3)C2=O)CC1)N1CCCC1 (stereo not drawn)	7.53%
COc1ccc(CCNS(=O)(=O)c2csc(C(N)=O)c2)cc1OC	17.9%
O=C(CSc1ncn[nH]1)NCCc1ccccc1	5.95%
COc1ccc(CC2(CO)CCN(Cc3cnc(-c4ccccc4C)nc3)CC2)cc1	-20.6%
COc1ccc(C(=O)NNC2=NC(C)(C)Cc3cc(C)c(C)cc32)cc1	25.3%
COc1ccc(C(=O)Nc2cc(-c3nn4c(C)nnc4s3)ccc2C)cc1	-41.8%
Cc1cc(NC(=O)CCC(=O)N(C2CC2)C(C(=O)NC(C)(C)C)c2ccccc2Cl)no1 (stereo not drawn)	9.81%
COC(=O)C1=C(CSc2nc3c(cc2C#N)CN(C)CC3)OC(N)=C(C#N)C1c1ccc(F)cc1 (stereo not drawn)	-28.5%
CC(=O)OCC[N+](C)(C)C.[Cl-]	29.2%
COC(C/C=C/[C@@H](O)[C@@H](C)OCc1ccccc1)OC	15.7%
CCC/C=C(\CCC)C(NP(=O)(c1ccccc1)c1ccccc1)c1ccccc1 (stereo not drawn)	1.59%
Cc1cc(NC(=O)CSc2ncnc3sccc23)no1	14.4%
CCOC(=O)CSc1cc(C)nc2ccc(OC)cc12	7.42%
O=C1Nc2ccccc2N(O)N1c1ccc(S(=O)(=O)Nc2ccccn2)cc1	15.8%

SMILES	hERG current change (%, negative = inhibition) at 10uM
Cc1cccc2cc(C#N)c(NCCNS(=O)(=O)c3ccc4c(c3)OCCO4)nc12	6.43%
COc1cccc(NC(=O)c2c(C)cc(C)cc2CC(C)(C)C(=O)O)c1	12.9%
O=C(CCCCn1c(=O)[nH]c2ccccc2c1=O)NC1CCN(Cc2ccccc2)CC1	-18.9%
Cc1sc(NC(=O)C2=COCCO2)nc1-c1ccc(Br)cc1	6.47%
CC(C)Sc1ncnc2c1cnn2-c1ccccc1	3.86%
COC(=O)c1ccc(C)c(NC(=O)CCc2ccc(OC)cc2)c1	-3.01%
CC1(C)CC2CC(C)(CN2C(=O)CCCN2C(=O)c3ccccc3C2=O)C1 (stereo not drawn)	-17.9%
Cc1cc(O)cc(O)c1C=NCc1ccco1	-8.53%
N#C/C(=C/c1ccc(Br)s1)C(=O)NCCc1c[nH]c2ccccc12	18.8%
COc1ccc(C)cc1NC(=O)CN1C(=O)COc2ccc(S(=O)(=O)N3CCOCC3)cc21	15.5%
CCn1cc(CN2CCC(n3nccc3NC(=O)CCOc3ccccc3)CC2)cn1	-12.9%
CC(C)(O)CCc1c(-c2ccc(O)cc2O)oc2c3c(cc(O)c2c1=O)OC(C)(C)C=C3	13.7%
CC(C)(C)C1CCC(C(=O)Nc2cccnc2)CC1 (stereo not drawn)	-36.4%
COc1ccc(C(CNC(=O)c2ccc(-c3ccccc3)cc2)N(C)C)cc1OC (stereo not drawn)	-24.4%
O=C(c1ccc2c3c(cccc13)CC2)C1CCCN(C(=O)c2cccnc2)C1 (stereo not drawn)	-19.4%
CCCCN(C(=O)CCC(=O)Nc1cc(C)on1)C(C(=O)NC1CCCC1)c1ccccc1C (stereo not drawn)	-8.67%
Cc1cccc(-n2[nH]c(C)c(C=Nc3ccc4[nH]c(=O)[nH]c4c3)c2=O)c1	-0.0304%
C#Cc1ccc(CN2CCN(Cc3ccsc3)C(CCO)C2)cc1 (stereo not drawn)	-34.6%
C=CCNC(=O)c1cc2c(=O)n3ccccc3nc2s1	10.4%
CCOC(=O)c1sc(=NC(=O)c2cccc(Br)c2)n(C)c1C	27.2%
CN1CCN(C(=S)NCCc2ccccc2)CC1.O=C(O)C(=O)O	-14.5%
CN(c1ccccc1)S(=O)(=O)c1cccc(NC(=O)Nc2ccc(Cl)cc2C#N)c1	-29.5%
